# Results: the supplement of paper PMC8728848
# The list shows a part of the results.
# B1: GS7807E-bfa-538-23-538 (Bacteroides fragilis) (protein)
# chain: TDSFESFNTNEAGFDNDSKKQDFNYYGIPLGIIQQGIYFNYDWGSGKNWPFQTMQNLGADLFSGYVHDFNPFNEGKNNSTYYMMDGWNGSTWDNTYGYIMPEVQKSETINEKDNIGFFGITKILKVELMHRLSDLYGPIVYTQFGSKTGSTPDTQQEAYKAFFNDLDTGIAKIREYQKANPDIESFAKFDILMPQGKRTFSEWIRFANSLRLRLAVRIAMADSKLAVAEAQKALTDEEGLLEGNDEVVAVSTSSGYTNPFGEINKAWGEVFMNANMESLLVGYEDPRMEKYFDKATGSDATSLIDYKGTYKGIRQGTGFSHKNYNGHSKSTITQQTDAVLMTPAEVWFLRAEAALRGWSSESVKDCYEKGVKASFAQWGAAGAEAYLESDRKPSDYVDAFKAANNVKAVNTLTPKWDDAAGNEDKLGRIITQKWLAMFPEGGEAWAEQRRTGYPRLFPVLVNQSEGTVDTNLGPRRLNFFVGIKTTNPEQYTQLVNALGGIDNCGTRLWWDTGRNF
# How the values were obtained:
# Assay in all cases: glycan array binding signal (z-score within array); higher = stronger binding
# Conditions in all cases: glycan notation: IUPAC condensed, linker removed
# [1] = target: Fuc(a1-2)Gal6S(b1-3)GlcNAc6S
# Summary of the method: (§1)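 The binding signal is a Z-score computed within each array and averaged over linkers. Arrays of the same protein sequence at different concentrations or buffers were also averaged together. Data originate from 3228 arrays in the Consortium for Functional Glycomics database, kept only where the protein sequence was available.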
# Fuc(a1-2)Gal6S(b1-4)Glc = target: Fuc(a1-2)Gal6S(b1-4)Glc
# Summary of the method: as §1
# [2] = target: Fuc(a1-2)Gal6S(b1-4)Glc6S
# Summary of the method: as §1
# Fuc(a1-2)[Gal(a1-3)]Gal = target: Fuc(a1-2)[Gal(a1-3)]Gal
# Summary of the method: as §1
# [3] = target: Fuc(a1-2)[Gal(a1-3)]Gal(b1-3)GalNAc
# Summary of the method: as §1
# [4] = target: Fuc(a1-2)[Gal(a1-3)]Gal(b1-3)GalNAc(b1-3)Gal(a1-4)Gal(b1-4)Glc
# Summary of the method: as §1
# [5] = target: Fuc(a1-2)[Gal(a1-3)]Gal(b1-3)GlcNAc
# Summary of the method: as §1
# [6] = target: Fuc(a1-2)[Gal(a1-3)]Gal(b1-3)GlcNAc(b1-2)Man(a1-3)[Fuc(a1-2)[Gal(a1-3)]Gal(b1-3)GlcNAc(b1-2)Man(a1-6)]Man(b1-4)GlcNAc(b1-4)GlcNAc
# Summary of the method: as §1
# [7] = target: Fuc(a1-2)[Gal(a1-3)]Gal(b1-3)GlcNAc(b1-2)Man(a1-3)[Fuc(a1-2)[Gal(a1-3)]Gal(b1-3)GlcNAc(b1-2)Man(a1-6)]Man(b1-4)GlcNAc(b1-4)[Fuc(a1-6)]GlcNAc
# Summary of the method: as §1
# [8] = target: Fuc(a1-2)[Gal(a1-3)]Gal(b1-3)GlcNAc(b1-3)GalNAc
# Summary of the method: as §1
# [9] = target: Fuc(a1-2)[Gal(a1-3)]Gal(b1-3)GlcNAc(b1-6)GalNAc
# Summary of the method: as §1
# [10] = target: Fuc(a1-2)[Gal(a1-3)]Gal(b1-4)Glc
# Summary of the method: as §1
# [11] = target: Fuc(a1-2)[Gal(a1-3)]Gal(b1-4)GlcNAc
# Summary of the method: as §1
# [12] = target: Fuc(a1-2)[Gal(a1-3)]Gal(b1-4)GlcNAc(b1-2)Man
# Summary of the method: as §1
# [13] = target: Fuc(a1-2)[Gal(a1-3)]Gal(b1-4)GlcNAc(b1-2)Man(a1-3)[Fuc(a1-2)[Gal(a1-3)]Gal(b1-4)GlcNAc(b1-2)Man(a1-6)]Man(b1-4)GlcNAc(b1-4)GlcNAc
# Summary of the method: as §1
# [14] = target: Fuc(a1-2)[Gal(a1-3)]Gal(b1-4)GlcNAc(b1-2)Man(a1-3)[Fuc(a1-2)[Gal(a1-3)]Gal(b1-4)GlcNAc(b1-2)Man(a1-6)]Man(b1-4)GlcNAc(b1-4)[Fuc(a1-6)]GlcNAc
# Summary of the method: as §1
# [15] = target: Fuc(a1-2)[Gal(a1-3)]Gal(b1-4)GlcNAc(b1-3)GalNAc
# Summary of the method: as §1
# [16] = target: Fuc(a1-2)[Gal(a1-3)]Gal(b1-4)GlcNAc(b1-3)[Fuc(a1-2)[Gal(a1-3)]Gal(b1-4)GlcNAc(b1-6)]GalNAc
# Summary of the method: as §1
# [17] = target: Fuc(a1-2)[Gal(a1-3)]Gal(b1-4)GlcNAc(b1-6)GalNAc
# Summary of the method: as §1
# [18] = target: Fuc(a1-2)[Gal(a1-3)]Gal(b1-4)[Fuc(a1-3)]Glc
# Summary of the method: as §1
# [19] = target: Fuc(a1-2)[Gal(a1-3)]Gal(b1-4)[Fuc(a1-3)]GlcNAc
# Summary of the method: as §1
# [20] = target: Fuc(a1-2)[Gal(a1-3)]Gal(b1-4)[Fuc(a1-3)]GlcNAc(b1-3)GalNAc
# Summary of the method: as §1
# [21] = target: Fuc(a1-2)[Gal(a1-4)]Gal(b1-4)GlcNAc
# Summary of the method: as §1
# [22] = target: Fuc(a1-2)[GalNAc(a1-3)]Gal
# Summary of the method: as §1
# [23] = target: Fuc(a1-2)[GalNAc(a1-3)]Gal(b1-3)GalNAc(a1-3)[Fuc(a1-2)]Gal(b1-4)GlcNAc
# Summary of the method: as §1
# [24] = target: Fuc(a1-2)[GalNAc(a1-3)]Gal(b1-3)GalNAc(b1-3)Gal(a1-4)Gal(b1-4)Glc
# Summary of the method: as §1
# [25] = target: Fuc(a1-2)[GalNAc(a1-3)]Gal(b1-3)GlcNAc
# Summary of the method: as §1
# [26] = target: Fuc(a1-2)[GalNAc(a1-3)]Gal(b1-3)GlcNAc(b1-2)Man(a1-3)[Fuc(a1-2)[GalNAc(a1-3)]Gal(b1-3)GlcNAc(b1-2)Man(a1-6)]Man(b1-4)GlcNAc(b1-4)GlcNAc
# Summary of the method: as §1
# [27] = target: Fuc(a1-2)[GalNAc(a1-3)]Gal(b1-3)GlcNAc(b1-2)Man(a1-3)[Fuc(a1-2)[GalNAc(a1-3)]Gal(b1-3)GlcNAc(b1-2)Man(a1-6)]Man(b1-4)GlcNAc(b1-4)[Fuc(a1-6)]GlcNAc
# Summary of the method: as §1
# [28] = target: Fuc(a1-2)[GalNAc(a1-3)]Gal(b1-3)GlcNAc(b1-3)GalNAc
# Summary of the method: as §1
# [29] = target: Fuc(a1-2)[GalNAc(a1-3)]Gal(b1-3)GlcNAc(b1-6)GalNAc
# Summary of the method: as §1
# [30] = target: Fuc(a1-2)[GalNAc(a1-3)]Gal(b1-4)Glc
# Summary of the method: as §1
# [31] = target: Fuc(a1-2)[GalNAc(a1-3)]Gal(b1-4)GlcNAc
# Summary of the method: as §1
# [32] = target: Fuc(a1-2)[GalNAc(a1-3)]Gal(b1-4)GlcNAc(b1-2)Man
# Summary of the method: as §1
# [33] = target: Fuc(a1-2)[GalNAc(a1-3)]Gal(b1-4)GlcNAc(b1-2)Man(a1-3)[Fuc(a1-2)[GalNAc(a1-3)]Gal(b1-4)GlcNAc(b1-2)Man(a1-6)]Man(b1-4)GlcNAc(b1-4)GlcNAc
# Summary of the method: as §1
# [34] = target: Fuc(a1-2)[GalNAc(a1-3)]Gal(b1-4)GlcNAc(b1-2)Man(a1-3)[Fuc(a1-2)[GalNAc(a1-3)]Gal(b1-4)GlcNAc(b1-2)Man(a1-6)]Man(b1-4)GlcNAc(b1-4)[Fuc(a1-6)]GlcNAc
# Summary of the method: as §1
# [35] = target: Fuc(a1-2)[GalNAc(a1-3)]Gal(b1-4)GlcNAc(b1-3)Gal(b1-4)GlcNAc
# Summary of the method: as §1
# [36] = target: Fuc(a1-2)[GalNAc(a1-3)]Gal(b1-4)GlcNAc(b1-3)Gal(b1-4)GlcNAc(b1-3)Gal(b1-4)GlcNAc
# Summary of the method: as §1
# [37] = target: Fuc(a1-2)[GalNAc(a1-3)]Gal(b1-4)GlcNAc(b1-3)GalNAc
# Summary of the method: as §1
# [38] = target: Fuc(a1-2)[GalNAc(a1-3)]Gal(b1-4)GlcNAc(b1-3)[Fuc(a1-2)[GalNAc(a1-3)]Gal(b1-4)GlcNAc(b1-6)]GalNAc
# Summary of the method: as §1
# [39] = target: Fuc(a1-2)[GalNAc(a1-3)]Gal(b1-4)GlcNAc(b1-6)GalNAc
# Summary of the method: as §1
# [40] = target: Fuc(a1-2)[GalNAc(a1-3)]Gal(b1-4)[Fuc(a1-3)]GlcNAc
# Summary of the method: as §1
# [41] = target: Fuc(a1-2)[GalNAc(a1-3)]Gal(b1-4)[Fuc(a1-3)]GlcNAc(b1-3)GalNAc
# Summary of the method: as §1
# [42] = target: Fuc(a1-2)[GalNAc(a1-4)]Gal(b1-4)GlcNAc
# Summary of the method: as §1
# [43] = target: Fuc(a1-2)[GalNAc(b1-3)]Gal
# Summary of the method: as §1
binder,measurement,setting,value
B1,glycan array binding signal (z-score),[1],-0.431
same,glycan array binding signal (z-score),Fuc(a1-2)Gal6S(b1-4)Glc,-0.644
same,glycan array binding signal (z-score),[2],-0.639
same,glycan array binding signal (z-score),Fuc(a1-2)[Gal(a1-3)]Gal,-0.417
same,glycan array binding signal (z-score),[3],-0.4
same,glycan array binding signal (z-score),[4],0.24
same,glycan array binding signal (z-score),[5],-0.207
same,glycan array binding signal (z-score),[6],-0.206
same,glycan array binding signal (z-score),[7],1.31
same,glycan array binding signal (z-score),[8],-0.698
same,glycan array binding signal (z-score),[9],-0.086
same,glycan array binding signal (z-score),[10],-0.624
same,glycan array binding signal (z-score),[11],-0.325
same,glycan array binding signal (z-score),[12],-0.627
same,glycan array binding signal (z-score),[13],2.19
same,glycan array binding signal (z-score),[14],-0.063
same,glycan array binding signal (z-score),[15],-0.457
same,glycan array binding signal (z-score),[16],-0.489
same,glycan array binding signal (z-score),[17],-0.155
same,glycan array binding signal (z-score),[18],-0.696
same,glycan array binding signal (z-score),[19],-0.625
same,glycan array binding signal (z-score),[20],-0.433
same,glycan array binding signal (z-score),[21],1.09
same,glycan array binding signal (z-score),[22],-0.468
same,glycan array binding signal (z-score),[23],-0.615
same,glycan array binding signal (z-score),[24],-0.632
same,glycan array binding signal (z-score),[25],-0.176
same,glycan array binding signal (z-score),[26],-0.293
same,glycan array binding signal (z-score),[27],-0.587
same,glycan array binding signal (z-score),[28],-0.382
same,glycan array binding signal (z-score),[29],-0.322
same,glycan array binding signal (z-score),[30],-0.66
same,glycan array binding signal (z-score),[31],-0.634
same,glycan array binding signal (z-score),[32],-0.618
same,glycan array binding signal (z-score),[33],0.771
same,glycan array binding signal (z-score),[34],-0.4
same,glycan array binding signal (z-score),[35],-0.377
same,glycan array binding signal (z-score),[36],0.104
same,glycan array binding signal (z-score),[37],-0.681
same,glycan array binding signal (z-score),[38],1.77
same,glycan array binding signal (z-score),[39],-0.685
same,glycan array binding signal (z-score),[40],1.45
same,glycan array binding signal (z-score),[41],0.598
same,glycan array binding signal (z-score),[42],0.259
same,glycan array binding signal (z-score),[43],0.211
